The record followed here is PubChem BioAssay AID1508624 (National Center for Advancing Translational Sciences (NCATS), 2021).

About 120 (0.25%) of roughly 48,000 compounds were called active. About 4% were inconclusive and are not listed. Calls follow the shape of the dose curve; as a rule, active = well fitted activation curve with a large enough effect; inconclusive = small, poorly fitted or top-dose-only effect, or another doubt; inactive = no such curve, though single readings can be large or run the other way. The list shows a part of the results.

The assay in a line: Primary qHTS for Identification of Small Molecule Activators of Huntingtin-Antisense Promoter Activity. Also: nearly all actives have a fitted effect of over 55% in size. The conditions noted are these: HEK293 HTT-AS promoter firefly luciferase reporter, 24 h; series mostly up to 57.5 µM; activity change, positive = activation: at the top concentration. The procedure, abridged: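 HEK293 cells carrying firefly luciferase reporters were seeded at 2,500 per well in Opti-MEM and cultured for 24 h. They were then treated with compounds at up to 57.5 uM final for 24 h at 37 degrees C before Dual-Glo luminescence readout.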
`Cc1cc(C)cc(N2CCn3c2nc2c3c(=O)n(C/C=C/c3ccccc3)c(=O)n2C)c1`: the “activity change, positive = activation” value is inactive: -4.57%.
As for `CCN(CC)CCCC(C)Nc1ccnc2cc(Cl)ccc12` (centres undefined), the entry is “inactive”; as for `COc1cccc(CC(=O)Nc2ccc(-c3nc4ccccc4s3)cc2Cl)c1`, inactive: 16.4%.
`CCOc1cc(CNC(=O)C2CCN(c3nc4ccccc4[nH]3)CC2)cc(OCC)c1OCC`: the “activity change, positive = activation” value is inactive: -21.2%.
With `Cc1ccc(C)c(NC(=O)CCOc2ccccc2)c1` the figure was inactive: -1.01%; with `CS(=O)(=O)c1ccc([C@@H](O)[C@@H](CF)NC(=O)C(Cl)Cl)cc1`, inactive: -12.3%.
With `Cc1ccc2nc(-c3ccc(F)cc3)c(NC(C)(C)CC(C)(C)C)n2c1`, the “activity change, positive = activation” value is inactive: -66%.
Consider `Cc1c(Cl)cccc1NC(=O)CSc1ccc(-c2ccccn2)nn1`, for which the “activity change, positive = activation” value was inactive: -14.9%.
As for `Cc1nn2c(=O)cc(COC(=O)c3ccccc3NC(=O)c3cccs3)nc2s1`, the “activity change, positive = activation” value is inactive: -12.2%.
`CC(C)NC(=O)c1ccc2c(c1)N(Cc1cccc(Cl)c1)C(=O)c1ccccc1S2=O` (centres undefined): the “activity change, positive = activation” value is inactive: -5.9%.
As for `CCc1ccccc1NS(=O)(=O)c1ccc2c(c1)CCCN2C(=O)C1CCC1`, the figure is inactive: -30.7%; as for `COc1ccc(NC(=O)CN2CCN(Cc3ccccc3Cl)S2(=O)=O)cc1Cl`, inactive: -27.7%; as for `CCCN1C(=O)C(O)(CC(=O)c2ccc(C(C)C)cc2)c2ccccc21` (centres undefined), inactive: -26.6%.
On to `COC(=O)c1sc2c(c1C)c(=O)n(-c1ccccc1)c(=O)n2CC(=O)Nc1cccc(C)c1`, for which the “activity change, positive = activation” value was inactive: -27.4%.
As for `CN1CCN(Cc2c(O)ccc3cc(-c4ccc(Cl)cc4)c(=O)oc23)CC1`, the figure is inactive: -8.41%.
With `COc1cc(OC)c(NC(=O)N2CCC(CN3CCOCC3)CC2)cc1Cl` the figure was inactive: 3.57%; with `CCN(C(=O)Cn1c(=O)oc2cc(S(=O)(=O)N3CCCCC3)ccc21)c1ccccc1`, inactive: -16.9%.
`CCc1cccc(NC(=O)CCc2c(C)nc3c(-c4ccccc4)c(C)nn3c2C)c1`: the “activity change, positive = activation” value is inactive: -14%.
As for `CC(C)OCCCNC(=O)Cc1ccc(NC(=O)N2CCCCc3ccccc32)cc1`, the figure is inactive: -0.837%; as for `CCc1ccccc1NC(=O)Cn1c(=O)n(-c2cccc(C)c2)c(=O)c2c1c1cc(OC)ccc1n2C`, inactive: -7.82%; as for `CCOc1ccccc1N(C)C(=O)c1cc2c(s1)-c1ccccc1OC2`, inactive: -19.7%.
With `CCOC(=O)CC(NC(=O)c1cc2c(=O)n3cccc(C)c3nc2s1)c1ccc(OCC)c(OC)c1` (centres undefined) the figure was inactive: 0.992%; with `Cc1ccc(NC(=O)Cn2c(=O)n(CC(=O)NCCc3ccccc3)c(=O)c3ccccc32)cc1C`, inactive: -18.3%; with `CCCCc1nc(SCC(=O)Nc2ccc(S(N)(=O)=O)cc2)n[nH]1`, inactive: -0.89%.
With `CCc1cccc(NC(=O)Nc2cn(C)c(=O)c3ccccc23)c1` the figure was inactive: -31%; with `COc1cccc(NC(=O)C2CCN(S(=O)(=O)c3c(C)noc3C)CC2)c1`, inactive: -1.71%; with `COc1ccc(-c2noc(CCC(=O)Nc3cccc(C)c3C)n2)cc1OC`, inactive: -31.3%.
On to `Cc1ccc(S(=O)(=O)c2cn(CC(=O)Nc3ccc(F)cc3)c3cc4c(cc3c2=O)OCO4)cc1`, for which the “activity change, positive = activation” value is inactive: -15.5%.
In the case of `O=C(Cn1c(=O)n(-c2ccc(Cl)cc2)c(=O)c2c3c(sc21)CCCCC3)Nc1cccc(Cl)c1`, the “activity change, positive = activation” value is inactive: -9.89%.
With `O=C(NCc1cccc(Cl)c1)c1cc2c(s1)-c1ccccc1SC2` the figure was inactive: -15.3%.
Turning to `Cc1ccc2cccc(NC(=O)c3cccc4c(Br)cccc34)c2n1`, the “activity change, positive = activation” value is inactive: -2.85%.
With `COc1ccc(C)cc1NC(=O)C(=O)NCC(c1cccnc1)N1CCN(c2ccccc2F)CC1` (centres undefined) the figure was inactive: -29.6%.
As for `CCn1c(=O)n(-c2ccc3c(c2)OCO3)c2nc(-c3cccc(OC)c3OC)nc(C(N)=O)c21`, the figure is inactive: -3.53%; as for `CCCn1cc(S(=O)(=O)c2ccc(C)c(C)c2)c(=O)c2cc(F)c(N3CCC(C)CC3)cc21`, inactive: -8.77%; as for `COc1ccc(N2CCN(C(=O)c3ccc4c(c3)N(Cc3cccc(Cl)c3)C(=O)c3ccccc3S4(=O)=O)CC2)cc1`, inactive: -6.04%.
As for `CC1=C(C(=O)Nc2cc(Cl)ccc2C)C2(CCCCC2)OC1=O`, the figure is inactive: -20.4%; as for `O=C(NCCc1csc(-c2ccc(F)cc2)n1)c1ccco1`, inactive: -4.39%; as for `Cc1cc(C)n2nc(CNC(=O)c3ccccc3Cl)nc2n1`, inactive: 1.38%.
In the case of `Cc1cc(C)cc(NC(=O)CCc2nnc3n(C)c(=O)c4sccc4n23)c1`, the “activity change, positive = activation” value was inactive: -1.74%.
With `CCOc1ccc(NC(=O)C2CCN(c3nc4ccccc4[nH]3)CC2)cc1` the figure was inactive: -3.78%.
With `CCSc1ccc(C(=O)Nc2ccc(-c3nc4ccc(C)cc4s3)cc2)cc1` the figure was inactive: -13.9%.
On to `COC(=O)c1c(SC)nc2ccccc2c1OCc1ccccc1Cl`, for which the “activity change, positive = activation” value is inactive: -24.9%.
As for `CCOc1ccc(CN2CCc3nc(N4CCN(c5ncccn5)CC4)ncc3C2)cc1OC`, the figure is inactive: -43.1%; as for `CCC(CC)C(=O)OCc1cc(=O)n2nc(C3CCCCC3)sc2n1`, inactive: 13.3%.
For the compound `Cc1ccc(-c2c(C(=O)N3CCN(c4cccc(C)c4)C(C)C3)oc(=O)c3ccccc23)cc1` (centres undefined), the “activity change, positive = activation” value was inactive: -37.6%.
In the case of `COC(=O)C1=C(C)N=C2SCCC(=O)N2C1c1ccc(OCc2ccccc2)c(OC)c1` (centres undefined), the “activity change, positive = activation” value is inactive: -9.66%.
In the case of `CCOC(=O)c1c(C)[nH]c(C)c1S(=O)(=O)N(C)CC(=O)N1CCN(c2ccc(Cl)cc2)CC1`, the “activity change, positive = activation” value was inactive: -9.42%.
With `CCOc1ccc(N2C(=O)CS(=O)(=O)C23C(=O)N(Cc2cccc(Cl)c2)c2ccccc23)cc1` (centres undefined) the figure was inactive: -24.8%; with `CC(C)(C)OC(=O)N1CCC(c2c(C(=O)NCCc3ccsc3)cnn2-c2ccccc2Cl)CC1`, inactive: -18.9%; with `CCc1c(C)nc2nncn2c1Nc1ccc(Cl)cc1`, inactive: -32.9%.
Consider `CCc1nc2ccccc2n2c(-c3ccccc3)c3c(=O)n(C)c(=O)n(C)c3c12`, for which the “activity change, positive = activation” value is inactive: -7.11%.
As for `COc1ccc(-n2c(=O)c3c4c(sc3n(Cc3ccc(C)cc3C)c2=O)CCC4)c(OC)c1`, the figure is inactive: 1.94%.
Turning to `CCC(C(=O)Nc1ccc(C(C)=O)cc1)n1cnc2nc3c(cc2c1=O)CCCC3` (centres undefined), the “activity change, positive = activation” value is inactive: 3.15%.
As for `CCOc1ccccc1NS(=O)(=O)c1ccc2c(c1)CC(C)N2C(=O)C1CC1` (centres undefined), the figure is inactive: -31.1%.
As for `COc1ccc(OC)c(CNC(=O)Cn2ncc3c([nH]c4ccc(C)cc43)c2=O)c1`, the figure is inactive: -3.02%; as for `COc1cc(C(CC(=O)NCc2ccccc2)N2Cc3ccccc3C2=O)cc(OC)c1OC` (centres undefined), inactive: -8.31%; as for `CCSc1ncc(Cl)c(C(=O)Nc2ccc(S(=O)(=O)Nc3ncccn3)cc2)n1`, inactive: -8.96%.
With `COc1cccc(CNC(=O)CCCn2ncn3c(cc4occc43)c2=O)c1OC` the figure was inactive: -10.2%.
Consider `CCCOC(C(=O)OC1CCN(C)CC1)(c1ccccc1)c1ccccc1`, for which the “activity change, positive = activation” value is inactive: -11.5%.
`Cc1cccc(C(=O)Nc2nc3nc(-c4ccccc4)cc(=O)n3[nH]2)c1`: the “activity change, positive = activation” value is inactive: -3.1%.
As for `CC(C)(C)OC(=O)N1CCC(c2c(C(=O)Nc3ccc4c(c3)OCCO4)cnn2-c2ccc(F)cc2F)CC1`, the figure is inactive: -64.3%; as for `CCOCCn1c(C2CCN(CCc3ccc(C(C)(C)C(=O)O)cc3)CC2)nc2ccccc21`, inactive: -10.3%.
Take `COc1ccc(N2CC(NC(=O)COc3ccc(F)cc3)CC2=O)cc1OC` (centres undefined): the “activity change, positive = activation” value is inactive: -18.1%.
With `CCOC(=O)C(=O)NCC(c1cccnc1)N1CCN(c2ccccc2)CC1` (centres undefined) the figure was inactive: -6.16%; with `CCOC(=O)CC(NC(=O)c1cc2cc(Br)cc(OC)c2oc1=O)c1ccc(OC)cc1` (centres undefined), inactive: -15.9%; with `O=C(Nc1cccc(OCc2cc(=O)n3ccccc3n2)c1)c1ccccc1Br`, inactive: 15.1%.
With `CCC1CN(C(=O)NCc2ccccc2)c2cc(Cl)ccc2O1` (centres undefined) the figure was inactive: -27.6%; with `CCN(CC)c1cc(C)c2cc(NC(=O)c3ccccc3Cl)ccc2n1`, inactive: -10.7%.
As for `CCOC(=O)c1ccc(NC(=O)CSc2ccc(-c3ccccn3)nn2)cc1`, the figure is inactive: -21.5%.
Consider `COc1ccc(S(=O)(=O)NCCc2nnc3ccc(SCC(=O)Nc4cc(C)cc(C)c4)nn23)cc1`, for which the “activity change, positive = activation” value is inactive: -16%.
Consider `Cn1c(=O)n(C)c2cc(N3CCOCC3)c(NC(=O)c3ccc(Cl)cc3)cc21`, for which the “activity change, positive = activation” value was inactive: -8.58%.
As for `O=C(NCc1ccc2c(c1)CCN2C(=O)c1ccncc1)c1ccccc1Cl`, the figure is inactive: 14.3%; as for `Cn1c(=O)c2c(nc(CN3CCN(c4ccccc4F)CC3)n2Cc2ccccc2F)n(C)c1=O`, inactive: 7.25%; as for `COc1ccc(OC)c(CCNC(=O)c2cc3cccc4c3n2CC(C)S4)c1` (centres undefined), inactive: -20.9%.
On to `Cn1c2ccccc2c2c(C(=O)N3CCN(c4cccc(Cl)c4)CC3)cn(C3CCCCC3)c(=O)c21`, for which the “activity change, positive = activation” value was inactive: -18.6%.
With `COc1ccccc1CCNC(=O)C(=O)NCC(c1ccco1)S(=O)(=O)c1ccc(F)cc1` (centres undefined) the figure was inactive: -12.4%; with `COc1cccc(N2CCN(C(=O)C3CCCN(S(=O)(=O)c4ccc5c(c4)oc(=O)n5C)C3)CC2)c1` (centres undefined), inactive: -33.5%; with `Cc1ccc2nc(COc3ccccc3NC(=O)c3ccccc3C)cc(=O)n2c1`, inactive: -4.68%.
As for `COc1ccc(-c2nnc(SCC(=O)Nc3cc(OC)ccc3OC)nc2-c2ccc(OC)cc2)cc1`, the figure is inactive: 5.47%.
With `O=S(=O)(c1ccc(Cl)cc1)c1nc(-c2cccc(Br)c2)oc1NCc1ccccc1` the figure was inactive: -8.93% [at 11.5 µM, percent change from vehicle, -100% = no light].
With `CCc1cccc(C)c1NC(=O)Cn1c(=O)n(-c2ccc(C)cc2)c(=O)c2c1cnn2C`, the “activity change, positive = activation” value is inactive: -7.2%.
With `COc1ccc(CCn2c(=O)c3cccnc3n(CC(=O)Nc3c(C)cccc3C)c2=O)cc1OC` the figure was inactive: -5.43%; with `Cc1cccc(CCNC(=O)c2ccc3c(c2)nc2n3CCC(C)C2)c1` (centres undefined), inactive: 24.9%.
With `COc1cc2c(cc1OC)C1CC(=O)C(CC(C)C)CN1CC2` (centres undefined) the figure was inactive: -10.4%; with `Cc1cccc(-c2noc(-c3ccc(NCc4ccco4)c([N+](=O)[O-])c3)n2)c1`, inactive: 21.7%; with `O=C(c1ccco1)N1CCN(c2nc3c(F)cc(F)cc3s2)CC1`, inactive: 21.5%.
With `Nc1ccc(S(=O)(=O)NC(=O)c2ccccc2)cc1` the figure was inactive: -10.8%; with `COc1cccc(-c2ccc(-c3noc(-c4ccccc4Br)n3)c(OC)n2)c1`, inactive: -0.58%.
Take `CCC(=O)N1c2ccccc2CC1C(=O)NCc1cccc(OC)c1OC` (centres undefined): the “activity change, positive = activation” value is inactive: -7.11%.
Regarding `CCOc1ccc(CCNC(=O)C2CCN(Cc3nc(-c4ccc(OC)c(OC)c4)oc3C)CC2)cc1OCC`, the “activity change, positive = activation” value was inactive: -2.28%.
With `COc1cc(-c2nc(-c3ccc4c(c3)[nH]c(=O)n4C)no2)cc(OC)c1OC` the figure was inactive: -4.05%.
In the case of `COc1ccc(-n2c(/C=C/c3cccc(C(F)(F)F)c3)nc3ccccc3c2=O)cc1Cl`, the “activity change, positive = activation” value was inactive: -17.5%.
As for `CCOc1ccccc1NC(=O)C1CCN(S(=O)(=O)c2ccc3[nH]c(=O)ccc3c2)CC1`, the figure is inactive: -22.3%.
For `Cc1ccn2c(=O)cc(COc3ccc(NC(=O)COc4ccccc4)cc3)nc2c1`, the “activity change, positive = activation” value was inactive: -1.55%.
